# Measurements taken from publication PMC4081100.
# The entries are a selection whose mix differs from that of the whole data set. For part of these data: At the low end of the ranking the order means little. The list shows a part of the results. For part of these data: Construct or isoform of the protein are uncertain.
# Assays:
# Assay in all cases: universal protein binding microarray (PBM)
# Conditions in all cases: transcription factors of Arabidopsis thaliana; high values mean tight binding; most listed sequences are background and not binding sites; double strand, one strand shown
# GST-ANAC092(1-176) = molecular target: T1, GST-ANAC092(1-176) (UniProt Q9FKA0)
# T1 sequence: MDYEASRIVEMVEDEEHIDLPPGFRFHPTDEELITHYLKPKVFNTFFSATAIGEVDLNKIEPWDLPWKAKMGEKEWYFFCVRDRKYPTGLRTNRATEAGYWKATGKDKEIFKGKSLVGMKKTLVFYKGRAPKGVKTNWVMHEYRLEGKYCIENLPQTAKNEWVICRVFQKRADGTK
# GST-ANAC019 NAC domain = molecular target: T2, GST-ANAC019 NAC domain (UniProt Q9C932)
# T2 sequence: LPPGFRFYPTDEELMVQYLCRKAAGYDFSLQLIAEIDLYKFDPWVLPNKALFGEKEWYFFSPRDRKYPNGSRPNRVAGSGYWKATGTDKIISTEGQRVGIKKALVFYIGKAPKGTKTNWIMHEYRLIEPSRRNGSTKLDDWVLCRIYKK
# GST-ANAC055(1-171) = molecular target: T3, GST-ANAC055(1-171) (UniProt Q9LDY8)
# T3 sequence: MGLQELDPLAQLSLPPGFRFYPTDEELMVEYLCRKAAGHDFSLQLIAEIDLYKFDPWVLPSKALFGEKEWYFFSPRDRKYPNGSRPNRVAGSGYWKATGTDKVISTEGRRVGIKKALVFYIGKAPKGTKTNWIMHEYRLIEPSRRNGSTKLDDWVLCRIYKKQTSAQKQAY
# [1] = molecular target: T4, GST-ANAC092(1-285) full length (UniProt Q9FKA0)
# T4 sequence: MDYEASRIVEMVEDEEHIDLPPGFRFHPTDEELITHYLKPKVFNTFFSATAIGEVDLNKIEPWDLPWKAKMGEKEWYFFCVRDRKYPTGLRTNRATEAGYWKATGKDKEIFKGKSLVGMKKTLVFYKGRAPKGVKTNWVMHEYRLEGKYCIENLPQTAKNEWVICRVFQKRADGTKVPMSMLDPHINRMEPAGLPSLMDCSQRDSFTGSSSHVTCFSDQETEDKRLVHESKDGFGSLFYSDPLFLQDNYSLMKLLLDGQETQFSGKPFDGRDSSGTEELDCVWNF
# GST-NAP(1-166) = molecular target: T5, GST-NAP(1-166) (UniProt O49255)
# T5 sequence: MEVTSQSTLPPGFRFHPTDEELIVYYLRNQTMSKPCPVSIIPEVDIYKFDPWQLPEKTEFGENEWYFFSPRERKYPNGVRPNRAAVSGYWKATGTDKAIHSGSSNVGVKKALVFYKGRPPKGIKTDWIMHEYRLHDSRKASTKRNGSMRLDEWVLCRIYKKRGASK
# GST-NTL8 NAC domain = molecular target: T6, GST-NTL8 NAC domain (UniProt Q9XIN7)
# T6 sequence: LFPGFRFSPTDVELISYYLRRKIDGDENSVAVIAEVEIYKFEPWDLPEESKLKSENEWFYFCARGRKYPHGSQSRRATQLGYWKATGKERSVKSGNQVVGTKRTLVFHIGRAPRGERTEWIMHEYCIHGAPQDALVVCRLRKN
# GST-SND1(1-203) = molecular target: T7, GST-SND1(1-203) (UniProt Q9LPI7)
# T7 sequence: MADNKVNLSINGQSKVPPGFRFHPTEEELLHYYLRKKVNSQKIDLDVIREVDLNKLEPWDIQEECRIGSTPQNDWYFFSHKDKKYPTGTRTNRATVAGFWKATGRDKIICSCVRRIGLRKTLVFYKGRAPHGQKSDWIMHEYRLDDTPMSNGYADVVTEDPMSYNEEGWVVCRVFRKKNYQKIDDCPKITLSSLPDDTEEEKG
# GST-VND3 NAC domain = molecular target: T8, GST-VND3 NAC domain (UniProt Q9FH59)
# T8 sequence: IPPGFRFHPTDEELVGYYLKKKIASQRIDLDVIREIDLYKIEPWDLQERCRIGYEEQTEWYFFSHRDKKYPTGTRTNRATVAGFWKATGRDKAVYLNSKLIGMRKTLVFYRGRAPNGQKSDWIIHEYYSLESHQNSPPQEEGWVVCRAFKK
# [2] = molecular target: T9, GST-VOZ2 (Arabidopsis thaliana) (UniProt Q9SLB9)
# T9 sequence: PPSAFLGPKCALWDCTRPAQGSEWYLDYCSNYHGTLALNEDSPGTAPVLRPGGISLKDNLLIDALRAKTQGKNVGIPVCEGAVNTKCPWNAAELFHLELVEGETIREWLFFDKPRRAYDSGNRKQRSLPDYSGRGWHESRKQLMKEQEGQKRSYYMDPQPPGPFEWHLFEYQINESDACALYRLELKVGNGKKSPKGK
# GST-WRKY1(266-371) = GST-WRKY1(266-371) (UniProt Q9SI37)
# GST-NTL6(1-168) = GST-NTL6(1-168) (UniProt Q9SCK6)
# GST-ATAF1 NAC domain = molecular target: T10, GST-ATAF1 NAC domain (UniProt Q39013)
# T10 sequence: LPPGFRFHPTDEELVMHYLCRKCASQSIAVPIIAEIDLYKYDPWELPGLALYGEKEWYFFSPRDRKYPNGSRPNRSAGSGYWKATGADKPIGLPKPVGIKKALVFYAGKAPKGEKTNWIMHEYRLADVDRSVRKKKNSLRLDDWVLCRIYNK
# GST-NST2(1-184) = molecular target: T11, GST-NST2(1-184) (UniProt Q9M274)
# T11 sequence: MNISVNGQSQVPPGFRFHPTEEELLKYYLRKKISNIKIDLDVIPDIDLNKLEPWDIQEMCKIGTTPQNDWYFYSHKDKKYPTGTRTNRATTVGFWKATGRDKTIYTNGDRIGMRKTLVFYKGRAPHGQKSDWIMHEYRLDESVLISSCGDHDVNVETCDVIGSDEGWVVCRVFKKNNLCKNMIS
# GST-VND7 NAC domain = molecular target: T12, GST-VND7 NAC domain (UniProt Q9C8W9)
# T12 sequence: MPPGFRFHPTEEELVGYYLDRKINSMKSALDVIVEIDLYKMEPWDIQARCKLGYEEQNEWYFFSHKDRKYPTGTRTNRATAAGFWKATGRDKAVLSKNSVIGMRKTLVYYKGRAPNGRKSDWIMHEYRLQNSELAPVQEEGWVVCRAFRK
Sequence,binding signal (GST-ANAC092(1-176)),binding signal (GST-ANAC019 NAC domain),binding signal (GST-ANAC055(1-171)),binding signal [1],binding signal (GST-NAP(1-166)),binding signal (GST-NTL8 NAC domain),binding signal (GST-SND1(1-203)),binding signal (GST-VND3 NAC domain),binding signal [2],binding signal (GST-WRKY1(266-371)),binding signal (GST-NTL6(1-168)),binding signal (GST-ATAF1 NAC domain),binding signal (GST-NST2(1-184)),binding signal (GST-VND7 NAC domain)
ATTGACTG,0.0112 E-score,0.0091 E-score,0.0264 E-score,0.0365 E-score,0.0235 E-score,0.0613 E-score,-0.0023 E-score,-0.0325 E-score,0.00754 E-score,0.465 E-score,,,,
AGTCTTTG,,,,0.00089 E-score,-0.0204 E-score,0.017 E-score,-0.0478 E-score,0.0129 E-score,-0.0832 E-score,,0.0583 E-score,0.0487 E-score,0.0222 E-score,
GACCGGAA,,,0.0745 E-score,-0.0284 E-score,0.0437 E-score,,-0.0495 E-score,0.0174 E-score,0.00545 E-score,,-0.0877 E-score,0.0148 E-score,-0.0596 E-score,
GACGTCAA,,-0.0623 E-score,,,,-0.0594 E-score,0.139 E-score,0.126 E-score,0.0183 E-score,,0.00893 E-score,0.0728 E-score,,0.0526 E-score
AGTCAAGG,,,-0.00357 E-score,,0.0507 E-score,0.0248 E-score,0.0282 E-score,-0.0657 E-score,-0.0668 E-score,,0.0196 E-score,0.0036 E-score,0.0876 E-score,-0.0219 E-score
AGTCAAAT,-0.159 E-score,-0.0206 E-score,0.049 E-score,-0.0264 E-score,,-0.127 E-score,-0.109 E-score,0.0244 E-score,0.105 E-score,0.476 E-score,-0.0477 E-score,,-0.0727 E-score,
ATAAGTAA,,0.0139 E-score,0.181 E-score,,0.0431 E-score,,0.311 E-score,0.264 E-score,0.213 E-score,,,,,
AGGGTAAA,,-0.0249 E-score,,,,0.429 E-score,0.153 E-score,-0.0758 E-score,0.0368 E-score,0.0129 E-score,0.0852 E-score,-0.0164 E-score,,
GATACGTA,,0.428 E-score,0.415 E-score,,0.458 E-score,-0.0218 E-score,0.257 E-score,0.405 E-score,-0.0588 E-score,,0.0687 E-score,0.341 E-score,,
ATTACGTC,,0.329 E-score,,,,0.00209 E-score,0.432 E-score,0.37 E-score,0.104 E-score,,-0.00629 E-score,,,
CCCTTGAC,,,-0.00834 E-score,-0.004 E-score,,0.151 E-score,0.0155 E-score,0.0223 E-score,-0.039 E-score,,0.0561 E-score,-0.0458 E-score,-0.0221 E-score,-0.0368 E-score
ACGCAATA,0.444 E-score,,0.212 E-score,,,,0.419 E-score,0.312 E-score,0.0762 E-score,,0.00587 E-score,,,
AAGTTGAC,-0.0143 E-score,0.0109 E-score,,-0.0303 E-score,-0.00573 E-score,-0.0237 E-score,-0.0208 E-score,-0.0707 E-score,0.0963 E-score,,-0.084 E-score,,-0.0363 E-score,
CGACACGC,,0.246 E-score,,,0.194 E-score,-0.0321 E-score,0.134 E-score,0.138 E-score,-0.0672 E-score,0.021 E-score,-0.0982 E-score,0.188 E-score,-0.0184 E-score,
ACGTCAAA,,0.262 E-score,,,,0.00592 E-score,0.361 E-score,0.252 E-score,0.181 E-score,,0.0817 E-score,0.176 E-score,0.261 E-score,0.25 E-score
GCATTGAC,,0.0256 E-score,0.0486 E-score,0.00675 E-score,-0.00861 E-score,-0.0912 E-score,-0.0839 E-score,0.0107 E-score,0.125 E-score,,-0.0593 E-score,,0.0561 E-score,-0.069 E-score
CCACGCCA,0.372 E-score,0.0852 E-score,,,,-0.0167 E-score,0.141 E-score,0.0202 E-score,0.0677 E-score,-0.0535 E-score,-0.0164 E-score,,,
